In PMC9520036, “The heme-regulated inhibitor kinase requires dimerization for heme-sensing activity” (The Journal of Biological Chemistry, 2022):

Molecular target: the molecule itself
Test: AUC; sedimentation velocity; samples at an absorbance of 0.5 at 280 nm, 20 °C, 42,000 rpm, c(s) distribution model in SEDFIT; self-association (oligomeric state from fit MW)

B1: Full-length HRI K196M, catalytically dead mutant (enzyme)
chain: not shown
notes: Catalytically dead, so not autophosphorylated; also called HRI-FL-K196M; His-HRI-FL-K196M
- stoichiometry N: 2
